This is an account of results in patent publication US10759791B2, “Mammalian and bacterial nitric oxide synthase inhibitors” (Northwestern University, priority 2014, dated 2020).

A word on the pKi: it is the Ki on a negative log10 scale, so that one unit is a factor of ten. Low readings indicate a high Ki, high ones a low Ki.

pKi: −log10 of the molar value.

The target in this assay is murine macrophage iNOS (Mus musculus (Mouse), UniProt P29477). The assay is described as follows: Hemoglobin capture assay, Ki (Example 159). It counts as biochemical.

`Cc1cc(N)nc(CCc2cncc(N3CCN(C)CC3)c2)c1` [Compound 14g, 4-Methyl-6-(2-(5-(4-methylpiperazin-1-yl)pyridin-3-yl)ethyl)pyridin-2-amine] had a negative-log Ki (pKi) of 4.85.

On to `Cc1cc(N)nc(CCc2cncc(N3CCOCC3)c2)c1` [Compound 14c, 4-Methyl-6-(2-(5-morpholinopyridin-3-yl)ethyl)pyridin-2-amine], for which the negative logarithm of the Ki (pKi) was 4.94.

In the case of `COCCCNc1cncc(CCc2cc(C)cc(N)n2)c1` [Compound 14e, 6-(2-(5-(3-Methoxypropylamino)pyridin-3-yl)ethyl)-4-methylpyridin-2-amine], the negative logarithm of the Ki (pKi) is 5.15.

Compound `Cc1cc(N)nc(CCc2cncc(C3CCN(C)CC3)c2)c1` [Compound 14h, 4-Methyl-6-(2-(5-(1-methylpiperidin-4-yl)pyridin-3-yl)ethyl)pyridin-2-amine] had a negative-log Ki (pKi) of 4.93.

The compound `Cc1cc(N)nc(CCc2cncc(CCCN(C)C)c2)c1` [Compound 14k, 6-(2-(5-(3-(Dimethylamino)propyl)pyridin-3-yl)ethyl)-4-methylpyridin-2-amine] gave a pKi of 5.83. Against the preceding compound, the pKi is 0.90 log units higher.

For `COCCN(C)c1cncc(CCc2cc(C)cc(N)n2)c1` [Compound 14d, 6-(2-(5-((2-Methoxyethyl)(methyl)amino)pyridin-3-yl)ethyl)-4-methylpyridin-2-amine], the pKi is 4.74.
